{
  "source": "patent US9023789B2",
  "about": "“Amylin analogs and pharmaceutical compositions thereof” (Novo Nordisk A/S, priority 2012, dated 2015)",
  "note": "At least one read-out could not be matched to a standard name with certainty. Numbered stars: 1 amine (or outer) side, 2 acyl side, 3 side chain; on linkers, the order of the positions; unused ones are H or OH. Bridge positions count the residues as written; N and C are the ends. Side chains are listed from the residue outwards. Peptide text beside a SMILES is read from it. * marks the point of attachment. C20 diacid = O=C(O)CCCCCCCCCCCCCCCCCCC(=O)*; γGlu = O=C(O)[C@H](CCC(=O)[*:2])N[*:1]; AEEA = NCCOCCOCC(=O)O",
  "data": [
    {"assay": "ASSAY (III) ThT fibrillation assay for physical stability", "assay_type": "physicochemical", "method_in_brief": "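Physical stability scored by ThT fluorescence (444 nm excitation, 485 nm emission) tracked every 20 min during 37 °C incubation with 960 rpm shaking, ThT at 1 μM final. Values are replicate means with SD at chosen times; HPLC against pramlintide standard gives initial and post-assay soluble concentrations.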", "units": {"ThT pH 4.0 recovery (%)": "%"}, "values": [
      {"smiles": "CC[C@H](C)[C@H](NC(=O)[C@H](C)NC(=O)CNC(=O)[C@H](Cc1ccccc1)NC(=O)[C@H](CC(N)=O)NC(=O)[C@@H]1CCCN1C(=O)[C@H](CO)NC(=O)[C@H](CO)NC(=O)[C@H](Cc1c[nH]cn1)NC(=O)[C@H](CCCNC(=N)N)NC(=O)[C@H](CC(C)C)NC(=O)[C@H](Cc1ccccc1)NC(=O)[C@H](CCCNC(=N)N)NC(=O)[C@H](C)NC(=O)[C@H](CC(C)C)NC(=O)[C@H](CCCNC(=N)N)NC(=O)[C@H](CCC(N)=O)NC(=O)[C@@H](NC(=O)[C@H](C)NC(=O)[C@@H]1CSSC[C@H](NC(=O)[C@@H](N)CCCCNC(=O)CC[C@H](NC(=O)CCCCCCCCCCCCCCCCCCC(=O)O)C(=O)O)C(=O)N[C@@H](CC(N)=O)C(=O)N[C@@H]([C@@H](C)O)C(=O)N[C@@H](C)C(=O)N[C@@H]([C@@H](C)O)C(=O)N1)[C@@H](C)O)C(=O)N1CCC[C@H]1C(=O)N[C@@H](CO)C(=O)N[C@@H](CO)C(=O)N[C@H](C(=O)N1CCC[C@H]1C(=O)N[C@H](C(=O)NCC(=O)N[C@@H](CO)C(=O)N[C@@H](CC(N)=O)C(=O)N[C@H](C(=O)N[C@@H](Cc1ccc(O)cc1)C(N)=O)[C@@H](C)O)C(C)C)[C@@H](C)O", "note": "[Example 63] (H-K([γGlu-C20 diacid])CNTATCATQRLARFLRHSSPNFGAIPSSTPVGSNTY-NH2; disulfide 2-7 (inferred); N-terminus assumed)", "ThT pH 4.0 recovery (%)": 92},
      {"smiles": "CC[C@H](C)[C@H](NC(=O)[C@H](C)NC(=O)CNC(=O)[C@H](Cc1ccccc1)NC(=O)[C@H](CC(N)=O)NC(=O)[C@@H]1CCCN1C(=O)[C@H](CO)NC(=O)[C@H](CO)NC(=O)[C@H](Cc1c[nH]cn1)NC(=O)[C@H](CCCNC(=N)N)NC(=O)[C@H](CC(C)C)NC(=O)[C@H](Cc1ccccc1)NC(=O)[C@H](CCCNC(=N)N)NC(=O)[C@H](C)NC(=O)[C@H](CC(C)C)NC(=O)[C@H](CCCNC(=N)N)NC(=O)[C@H](CCC(N)=O)NC(=O)[C@@H](NC(=O)[C@H](C)NC(=O)[C@@H]1CSSC[C@H](NC(=O)[C@@H](N)CCCCNC(=O)COCCOCCNC(=O)CC[C@H](NC(=O)CCCCCCCCCCCCCCCCCCC(=O)O)C(=O)O)C(=O)N[C@@H](CC(N)=O)C(=O)N[C@@H]([C@@H](C)O)C(=O)N[C@@H](C)C(=O)N[C@@H]([C@@H](C)O)C(=O)N1)[C@@H](C)O)C(=O)N1CCC[C@H]1C(=O)N[C@@H](CO)C(=O)N[C@@H](CO)C(=O)N[C@H](C(=O)N1CCC[C@H]1C(=O)N[C@H](C(=O)NCC(=O)N[C@@H](CO)C(=O)N[C@@H](CC(N)=O)C(=O)N[C@H](C(=O)N[C@@H](Cc1ccc(O)cc1)C(N)=O)[C@@H](C)O)C(C)C)[C@@H](C)O", "note": "[Example 64] (H-K([AEEA-γGlu-C20 diacid])CNTATCATQRLARFLRHSSPNFGAIPSSTPVGSNTY-NH2; disulfide 2-7; N-terminus assumed)", "ThT pH 4.0 recovery (%)": 85},
      {"smiles": "CC[C@H](C)[C@H](NC(=O)[C@H](C)NC(=O)CNC(=O)[C@H](Cc1ccccc1)NC(=O)[C@H](CC(N)=O)NC(=O)[C@@H]1CCCN1C(=O)[C@H](CO)NC(=O)[C@H](CO)NC(=O)[C@H](Cc1c[nH]cn1)NC(=O)[C@H](CCCNC(=N)N)NC(=O)[C@H](CC(C)C)NC(=O)[C@H](Cc1ccccc1)NC(=O)[C@H](CCCNC(=N)N)NC(=O)[C@H](C)NC(=O)[C@H](CC(C)C)NC(=O)[C@H](CCCNC(=N)N)NC(=O)[C@H](CCC(N)=O)NC(=O)[C@@H](NC(=O)[C@H](C)NC(=O)[C@@H]1CSSC[C@H](NC(=O)[C@@H](N)CCCCNC(=O)CC[C@H](NC(=O)CCCCCCCCCCCCCCCCCCC(=O)O)C(=O)O)C(=O)N[C@@H](CC(N)=O)C(=O)N[C@@H]([C@@H](C)O)C(=O)N[C@@H](C)C(=O)N[C@@H]([C@@H](C)O)C(=O)N1)[C@@H](C)O)C(=O)N1CCC[C@H]1C(=O)N[C@@H](CO)C(=O)N[C@@H](CO)C(=O)N[C@H](C(=O)N[C@@H](CC(N)=O)C(=O)N[C@H](C(=O)NCC(=O)N1CCC[C@H]1C(=O)N[C@@H](CC(N)=O)C(=O)N[C@H](C(=O)N[C@@H](Cc1ccc(O)cc1)C(N)=O)[C@@H](C)O)C(C)C)[C@@H](C)O", "note": "[Example 65] (H-K([γGlu-C20 diacid])CNTATCATQRLARFLRHSSPNFGAIPSSTNVGPNTY-NH2; disulfide 2-7 (inferred); N-terminus assumed)", "ThT pH 4.0 recovery (%)": 86}
    ]}
  ]
}
